Experiment [1] has as its target T1, Human sputum elastase (HSE) / Human Leukocyte Elastase (HLE) (Homo sapiens, UniProt P08246).
T1 construct: Human sputum elastase (HSE ) (Elasten Products Co., Pacific, Mo.); purchased Elasten Products Co., Pacific, Mo; host or cells: human sputum
T1 sequence (P08246 30-267): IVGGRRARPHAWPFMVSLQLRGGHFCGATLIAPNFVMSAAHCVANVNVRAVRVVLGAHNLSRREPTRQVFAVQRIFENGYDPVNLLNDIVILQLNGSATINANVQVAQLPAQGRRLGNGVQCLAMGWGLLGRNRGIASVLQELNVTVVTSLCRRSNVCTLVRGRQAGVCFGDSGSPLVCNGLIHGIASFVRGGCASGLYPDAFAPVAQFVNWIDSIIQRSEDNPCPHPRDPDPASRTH
Put plainly: Elastase Inhibition--In Vitro Method (hydrolysis of MeO-Suc-Ala-Ala-Pro-Val-pNA, microtiter format). The class given is biochemical. The settings on record: for % inhib. (5 ug/mL) 0% HSA / % inhib. (5 ug/mL) 0.5% HSA: 5 ug/mL compound; for % inhib. (5 ug/mL) 0.5% HSA: 0.5% HSA added.

In experiment [2] the target is T2, human neutrophil elastase (HNE) (Homo sapiens, UniProt P08246).
T2 construct: purified preparations of human neutrophil elastase (HNE); purchased Elastin Products Co., Pacific, MO
T2 sequence (P08246 30-247 limits assumed): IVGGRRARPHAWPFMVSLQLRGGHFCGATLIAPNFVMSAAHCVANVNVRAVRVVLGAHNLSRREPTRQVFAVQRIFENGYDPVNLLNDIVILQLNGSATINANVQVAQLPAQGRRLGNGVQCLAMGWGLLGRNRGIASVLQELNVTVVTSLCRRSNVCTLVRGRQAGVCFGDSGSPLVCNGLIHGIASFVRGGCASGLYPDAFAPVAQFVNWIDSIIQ
Briefly: Elastase Inhibition--Animal Model (acute hamster hemorrhage model, HNE instilled i.t.). Particulars: compound 20 ug i.t. three to five minutes before 50 μg HNE i.t., lung lavage hemorrhage at 18 hours. The class given is in vivo, Syrian Golden Hamsters. How it is done:
When instilled into the lungs of hamsters, purified preparations of human neutrophil elastase (HNE) will produce an emphysema like state. Acute challenge (18 hours) with 50 μg of HNE results in pulmonary hemorrhage which can be readily quantitated by measuring total RBC's (red blood count) and hemogloblin concentration of lung lavage samples.
HNE (obtained from Elastin Products Co., Pacific, MO) was diluted to 250 μg/mL in 0.9% sterile saline. Syrian Golden Hamsters, males, weighing approximately 90-130 grams, were obtained from Charles River Laboratories. The experiments described below are conducted using at least three animals per group.
Anesthesia required for the intratracheal administration of compounds and elastase was induced by the i.p. injection of Ketamine hydrochloride, 10 mg/100 gram body weight plus Xylazine, 1 mg/100 gram body weight.
Hamsters were anesthetized as described above and the trachea were surgically exposed. Test compounds were administered via 27g needle inserted directly into the trachea in 0.1 mL volume followed by 0.1 mL saline push. […]
Samples were concentrated by centrifugation (1500 rpm, 10 minutes) and brought up to 1.0 mL in saline. Homoglobin concentration was determined spectrophotometrically (540 nm) by the cyanmethemoglobin method using 200 μL sample to 2.5 mL cranmethoglobin reagent (Data Medical Associates, Arlington, Tx.).

Each structure is given as a SMILES string. Values joined by “and” are separate entries in the source; they are usually repeats but may differ in a detail not shown here. Equal entries are not always repeated.

As for `CC(C)C(NC(=O)CN(C(=O)[C@@H](NC(=O)c1ccc(C(=O)NS(=O)(=O)c2ccc(Cl)cc2)cc1)C(C)C)C1CCCC1)C(=O)C(F)(F)F` (single isomer, unassigned) [Cyclopentyl; p-[p-Cl(C6 H4)SO2 NHCO](C6 H4)CO; Diastereomer ] [(4-(4-Chlorophenyl)sulfonylaminocarbonylphenyl-1-oxomethyl]-L-Valyl-N-cyclopentyl-glycyl-N-[3-(1,1,1-trifluoro-4-methyl-2-oxypentyl) 1amide], in experiment [1], the “% inhib. (5 ug/mL) 0% HSA” value was determined as 99.8% and the “% inhib. (5 ug/mL) 0.5% HSA” value was 99.7%. Further, the “% inhib. (20 ug, i.t.)” value in experiment [2] was determined as 99.0%.
As to `CC(C)C(NC(=O)CN(C(=O)[C@@H](NC(=O)c1ccc(C(=O)NS(=O)(=O)c2ccc(Cl)cc2)cc1)C(C)C)C1CCCC1)C(=O)C(F)(F)F` (stereo partly drawn) [Cyclopentyl; p-[p-Cl(C6 H4)SO2 NHCO](C6 H4)CO] [(4-(4-Chlorophenyl)sulfonylaminocarbonylphenyl-1-oxomethyl]-L-Valyl-N-cyclopentyl-glycyl-N-[3-(1,1,1-trifluoro-4-methyl-2-oxypentyl) 1amide], in experiment [1], the “% inhib. (5 ug/mL) 0% HSA” value amounted to 100% and the “% inhib. (5 ug/mL) 0.5% HSA” value is reported as 99.8%. Besides, the IC50 in experiment [1] (Table I, 0.5 mM substrate, 15 minutes pre-incubation) was 0.066 mg/L and 0.081 mg/L. For the same compound, in experiment [2], the “% inhib. (20 ug, i.t.)” value is 99.2%.

The values above are taken from patent US5221665A, “N-substituted amides” (Boehringer Ingelheim Pharmaceuticals, Inc., priority 1991, dated 1993).
